Reference: article PMC8201891 (Journal of Nanobiotechnology, 2021)

Tests used:
[1] = target: the molecule itself; assay: transmission electron microscopy + dynamic light scattering; purified protein; TEM at 0.5 mg/mL, stained with 4% uranyl acetate; DLS at 1 mg/mL, 25 °C
[2] = target: T1, His-tagged integrin α2β1 protein (ACROBiosystems); assay: BLI; Octet RED96; His-tagged integrin α2β1 loaded on Anti-Penta-HIS tips from a 10 nM solution; 2D-HFn or HFn 0.2 to 5 μM in solution; binding buffer with 2 mM Mg2+; room temperature, 1000 rpm; association 720 s, dissociation 300 s; 1:1 model; conditions: both partners purified
T1 construct: Integrin alpha-2; recombinant, bought; Integrin beta-1; No catalogue number is printed; source: bought: ACROBiosystems

- Kd [2]: 36.3 µM
B1: Human H-ferritin (HFn) (natural protein)
chain: not shown
notes: The reverse primer carries the stop codon, so no C-terminal tag; the number was not measured here; also called naïve HFn; H subunit of ferritin; source: E. coli BL21 (DE3), purified (80 °C heat step, ammonium sulfate precipitation, Sephacryl S-300 HR size exclusion); copies: 24
- binding result [1]: binds
